# Experimental data: the supplement of paper PMC3334620
# In all, about 33,000 sequences were measured (“E-score (-0.5 to 0.5)”: median about -0.043, highest 2% from about 0.37 on). Some of the results follow.
# Target: T1, Upc2 (UniProt Q12151)
# T1 sequence: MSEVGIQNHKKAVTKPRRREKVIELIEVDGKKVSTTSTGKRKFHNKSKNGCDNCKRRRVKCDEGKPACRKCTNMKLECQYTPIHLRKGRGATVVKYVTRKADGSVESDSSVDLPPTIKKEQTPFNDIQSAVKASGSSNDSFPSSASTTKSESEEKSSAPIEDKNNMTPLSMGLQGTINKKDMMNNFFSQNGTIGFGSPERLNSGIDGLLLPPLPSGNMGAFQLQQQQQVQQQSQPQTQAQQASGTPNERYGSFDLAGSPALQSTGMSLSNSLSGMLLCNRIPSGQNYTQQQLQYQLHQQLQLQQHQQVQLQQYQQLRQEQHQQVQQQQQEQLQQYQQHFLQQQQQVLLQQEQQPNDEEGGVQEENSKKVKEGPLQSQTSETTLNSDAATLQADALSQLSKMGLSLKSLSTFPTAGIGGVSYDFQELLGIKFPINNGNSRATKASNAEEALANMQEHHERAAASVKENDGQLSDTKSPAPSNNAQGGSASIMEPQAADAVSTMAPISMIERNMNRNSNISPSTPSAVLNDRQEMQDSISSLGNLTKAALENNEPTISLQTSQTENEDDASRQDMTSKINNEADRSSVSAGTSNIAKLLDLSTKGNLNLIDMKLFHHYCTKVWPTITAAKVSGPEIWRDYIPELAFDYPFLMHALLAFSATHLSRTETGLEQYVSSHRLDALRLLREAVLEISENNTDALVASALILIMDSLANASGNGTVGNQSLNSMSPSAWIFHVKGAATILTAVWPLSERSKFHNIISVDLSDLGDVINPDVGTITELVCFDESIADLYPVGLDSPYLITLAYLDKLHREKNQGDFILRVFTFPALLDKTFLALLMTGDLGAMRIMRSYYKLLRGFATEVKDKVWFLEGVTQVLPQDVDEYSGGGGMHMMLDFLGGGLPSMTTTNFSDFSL
# Assay: PBM E-score (8-mer binding enrichment) (E-score (-0.5 to 0.5)); higher = stronger / more preferred TF binding; most listed sequences are background and not binding sites
# Settings: protein concentration: 200 nM; construct: GST-full length
# Experimental: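 Universal 'all 10-mer' protein binding microarrays (Agilent AMADID 015681) probed with GST-tagged S. cerevisiae TFs (full-length or DBD) made by in vitro transcription/translation (PURExpress), about 100-200 nM. Bound TF was detected with fluorescent anti-GST. Each ungapped 8-mer (which stands for itself and its reverse complement) is scored by the PBM enrichment score (E-score), a modified Wilcoxon-Mann-Whitney statistic from -0.5 to +0.5, computed with the Universal PBM Analysis Suite. Scale: above 0.35 generally sequence-specific binding.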
row,Sequence,PBM E-score
1,GACGCACC,-0.113
2,CAAAACTA,-0.0561
3,AAGCTGCC,-0.233
4,AATCCTCA,-0.216
5,AGGATCCA,-0.122
6,AAGCTCAT,-0.139
7,CCTCACCC,-0.0906
8,GCTCTCAC,-0.32
9,GCAAATCA,0.0183
10,ATATCGTC,0.0922
11,AACCTCTT,0.0154
12,AACGCTAC,0.105
13,ACGCTGCA,-0.0192
14,CCGAGAAC,0.117
15,AGGTCCGG,-0.129
16,ACAGAACG,0.265
17,AAGTCCGC,-0.0344
18,CTCCGCTA,-0.157
19,GCTACCGA,0.0302
20,CGCCTGCC,-0.133
21,TCTCCACA,-0.204
22,CACTGCGG,-0.111
23,CAGAGGCC,-0.111
24,AACAATGC,-0.0237
25,AAGGACCC,-0.195

row,Sequence,PBM E-score
1,AAGACCCT,-0.239
2,GAAAATCC,0.122
3,ACGAGATA,0.355
4,GTATGGAC,0.0685
5,GCGCACGA,-0.0283
6,GGATATCA,-0.0438
7,CCGTCGTA,0.457
8,CCTTAGAG,-0.235
9,CCTATTCA,-0.242
10,AACTCCCC,-0.0372
11,TCTACTCA,-0.238
12,CCGTAATC,0.039
13,CACTTGGC,-0.167
14,TTATAAAA,0.041
15,GAACTGTC,0.06
16,ACTCGCAG,-0.0889
17,AGGCGATG,-0.204
18,CGAACTCG,0.196
19,CCTCAGCA,-0.21
20,GAGAGGAC,-0.242
21,CGTGGTTC,-0.0882
22,CACCCGTG,-0.121
23,AATTCCCC,-0.257
24,CTTTAGAC,-0.0638
25,GTCTATTA,-0.0335

row,Sequence,PBM E-score
1,ACTGCCCC,-0.189
2,AAGTTCGC,0.141
3,TCAGTAGA,-0.141
4,AAGTACAT,-0.00422
5,GGAATGAA,0.0692
6,TCCTGTCA,0.102
7,CTAGGAAG,-0.409
8,GCTCAATA,-0.0432
9,CCAGATAC,0.125
10,CAGAATAA,-0.0364
11,AGGCCTAG,-0.168
12,AGTTCAAA,-0.124
13,AACCCTAT,0.0268
14,GCATTATA,-0.0395
15,ATAAATAG,-0.0685
16,CTGCAGAC,-0.0383
17,GCTCGGCA,-0.0335
18,CTGAGTAC,-0.0738
19,CCGGCATA,-0.0171
20,CGTCTAAA,0.148
21,GGTGCGAC,0.0784
22,CAATCTAC,-0.131
23,CGAACAAG,0.142
24,ATTAGAGA,-0.00567
25,GCATGATA,-0.0914

row,Sequence,PBM E-score
1,CCAGTCAG,-0.284
2,ACCACTAA,0.154
3,ACGACAAT,0.341
4,AAGGTGGT,-0.115
5,ACACCCGT,0.197
6,GTCCGAAA,0.0978
7,CGCAAGGA,-0.0287
8,GGGCTATA,-0.0146
9,AGTGTGTC,0.0799
10,AAGTTAGC,0.032
11,ATATTCCG,-0.039
12,CGCGGAGC,0.0452
13,CATAGTGC,-0.0902
14,GGTTTGAA,0.117
15,GCGGCACC,-0.0164
16,CGCTCTTA,0.232
17,CTGACCCA,-0.26
18,CCCGTTGC,-0.113
19,GCTGCGAC,-0.172
20,GCAAGTTA,-0.0991
21,TGTGCACA,0.0442
22,CAACGTAG,-0.0391
23,ATACGACG,0.483
24,GCAGACGA,0.122
25,CCGTTAGA,-0.0488

row,Sequence,PBM E-score
1,ATACCCGC,0.0747
2,CTACGGGA,0.00845
3,AGTCGAAG,-0.273
4,ACCTCGCT,0.221
5,ACCGCACT,0.174
6,CCTATTTA,-0.202
7,AGGAACCC,0.0161
8,AATAACAG,0.0645
9,CAACAGGA,-0.231
10,TATATAGA,0.201
11,AGGTGCGG,-0.112
12,GGTGCACA,-0.103
13,ATCGAAAG,-0.0276
14,AAGACAGA,0.0529
15,AAACATTT,0.013
16,GTTCGAAC,0.212
17,CTTAAGGA,-0.216
18,ATGCTCTC,-0.0987
19,ACGTGGCG,0.0238
20,AGCCCGTC,-0.186
21,AAAACGAA,0.283
22,CGGATGCC,0.0567
23,AATATTGG,-0.0635
24,AATGGTTG,-0.0265
25,AGGCCGCG,-0.076

row,Sequence,PBM E-score
1,CAAACTCG,0.104
2,AGTATGAG,-0.125
3,CGTTAGAC,0.101
4,ATTCGCAC,0.0659
5,GATAGAGA,-0.0427
6,ACCGGAAT,-0.105
7,CAAATGAG,-0.0504
8,GAACGGAA,0.207
9,CCCTGGAC,-0.217
10,GCCTATTA,-0.0629
11,CACGACAG,0.0499
12,CATGAACA,0.00931
13,AATTCTCC,-0.19
14,GCCACCCC,-0.114
15,ACAGACGT,-0.13
16,CACATATA,-0.0703
17,TGAAGTCA,-0.0978
18,CATTGATA,-0.156
19,TCGTTTCA,0.406
20,CGAGTCGA,0.272
21,ACATTGCC,-0.154
22,CGGGAGAG,-0.0503
23,AGCGAATC,0.228
24,GATACTCC,-0.0801
25,GCCTAGAC,0.0469

row,Sequence,PBM E-score
1,CAGTATAA,0.191
2,AAACAGTC,0.0141
3,CTCGCAAC,0.106
4,GCCTACGC,-0.153
5,AATAATAG,-0.0926
6,CATCGCGC,0.0671
7,AAAGTATG,-0.147
8,CAAAAAAG,-0.053
9,ACGTGGTA,0.074
10,GATACCAA,-0.00349
11,CTTGACGA,-0.0346
12,ACGTGGTC,-0.0145
13,AGTTAATG,-0.0415
14,ATTAATCC,-0.00773
15,CCCACGCA,-0.0804
16,TCTGCTAA,-0.132
17,ACACTTAA,0.161
18,AACCCCGT,0.129
19,ATGTAGGG,-0.205
20,ACTGGATA,-0.0304
21,CTTGCTAC,0.0254
22,TAGAGATA,-0.0296
